# Results: the supplement of paper PMC11417369
# ± gives the standard deviation of the averaged measurements. The list shows a part of the results.
# System: PfAP2-LT AP2 domain (GST-tagged)
# Assay: gcPBM binding intensity (ln(normalized median fluorescence intensity)); higher = stronger DNA binding
# Method in brief: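 Plasmodium falciparum DNA-binding domains carrying a GST tag were expressed in E. coli and applied for 1 h, at about 25 μg on average, to an Agilent 4 × 180k array. The array held primer-extended double-stranded 36-bp intergenic genomic probes together with negative controls, and binding took place in 1× PBS with 1% milk, 0.2 mg/ml BSA, 0.5% salmon testes DNA and 0.03% Triton X-100. An Alexa488 anti-GST antibody detected bound protein, and the array was scanned at 488 nm. Binding intensity is taken as the highest Masliner-normalised natural-log median intensity across replicate spots of either probe orientation.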
row,Sequence,gcPBM binding intensity (ln)
1,TACGGTTGTTTATTTTGTACGTAAAAAATATATTAT [XGTACX_site8393],8.67 ± 0.4
2,TATTAATTAAAAAAATGTACATAATTATAAATTTTT [XGTACX_site7994],8.39 ± 0.45
3,TAATATACATATATATGTACATATATATATATATAT [XGTACX_site2684],9.465 ± 0.035
4,TTCCAAAAAATTATTACACACATATGAGCACATATA [CACACA_site4543],8.9 ± 0.35
5,ATATTATTCTTATATTCACACAGTTTATATTTCCGT [CACACA_site5653],9.15 ± 0.5
6,AAATTACATACACGCGCACACACAAAAAAAAAAAAA [CACACA_site1335],9.55 ± 0.47
7,TTAAAAAATTATTGTAGTACATAGGAAATGAAAAAA [XGTACX_site155],8.51 ± 0.5
8,TAAATTAAATATTATAAACACACATATATATTATTT [CACACA_site8189],8.56 ± 0.43
9,ATATAAATAAATACAACACACATGTCATATCTAAAT [CACACA_site7533],9.12 ± 0.39
10,TATATACATAAAATTTGTACATATATATATATATAT [XGTACX_site3214],9.48 ± 0.014
11,AAAAAAAAAAAATGAGCACACATAAATAAAAACAAA [CACACA_site8447],9.05 ± 0.57
12,AATTTAAATATTTGTTGTACGTATTTATATATTCTT [XGTACX_site3623],8.93 ± 0.39
13,AATATATAAACACGTACACACACATATATGTATATA [CACACA_site9168],9.5 ± 0.26
14,TATTATATCTTATATGTATATTCCCACAAATTATAT [GTGCAC_negctrl_site362],8.61 ± 0.48
15,ATAATATATAAACACACACACATATATAAATACATT [CACACA_site4466],9.83 ± 0.11
16,CATGCCGTTAAATTATGTACTTATTATTTTAATATG [XGTACX_site4209],8.81 ± 0.52
17,TGGCAAAATAGGCACACACACATATACATATATATT [CACACA_site1059],9.69 ± 0.48
18,ATATTATAGTATATAACACACATTTTTCATAACACT [CACACA_site6331],8.97 ± 0.41
19,TATATAATTAAAATAACACACATATATAAAAATATA [CACACA_site2990],8.87 ± 0.4
20,TTTAGATAATTCATTACACACATGTATATTTATATA [CACACA_site7602],8.91 ± 0.33
21,TTTTTTTTTTTTTTATGTACGAAAGAAAAGCACATA [XGTACX_site8261],8.13 ± 0.41
22,TAACGAATTTAAATTTGTACATATATAAATATATAA [XGTACX_site2168],8.41 ± 0.44

row,Sequence,gcPBM binding intensity (ln)
1,ATCATCTATGTTATTACACACGTTATGTTATTATAA [CACACA_site5502],9.2 ± 0.37
2,ATAATACACGATTATTTTCCCTTTATGTAAATATAT [CACACA_negctrl_site1107],8.7 ± 0.47
3,AAAAAAAAAAAATGTGTGCACATTATTTCAACTTAA,8.89 ± 0.42
4,TATATATATAATATTGCACACAAAATTAAAAGTAAA [CACACA_site7889],8.94 ± 0.45
5,TATTTTATCTATTTGTGTACTTATATTTATGCAAAA [XGTACX_site1499],8.7 ± 0.35
6,AAATTATTAAAAAAAAGTACATATATATATATATAT [XGTACX_site8313],9.43 ± 0.099
7,ATAAATAATATATATACACACATATCTATACATATT [CACACA_site487],9.03 ± 0.33
8,TATATTCTTTATAGGTGTACTTAATAAATAAAAAAT [XGTACX_site5378],8.3 ± 0.33
9,TATATATATGTGTTTACACACAATAATGAATTAAAA [CACACA_site4659],8.89 ± 0.45
10,TATGAACATAAATTTGCACACTGGATATAATATATA [CACACA_site2155],8.89 ± 0.38
11,TATCTAGTTACTCCTTGTACATAATAAATGATTTTT [XGTACX_site5674],8.63 ± 0.49
12,AGAAAGAAAGAATACACACACACATATATAAATATC [CACACA_site7716],9.87 ± 0.38
13,ATTATCAATATGAAGGTGCATTTAAATAATATTTAC,8.66 ± 0.42
14,AAATATTATAGCACCACACACTTATTTTATTTATAT [CACACA_site7133],9.09 ± 0.33
15,ACTAAACTTTTATGTACACACATATAACATTAATTT [CACACA_site5276],9.07 ± 0.41
16,TTGGTACCTATAGATACACACATATATACCTATATA [CACACA_site5812],8.93 ± 0.37
17,TACAAAATGGGGAACACACACATATATATATATATA [CACACA_site3844],10.2 ± 0.05
18,TACGTAAAAATAGGACGTACTTATTTAGAAACCATA [XGTACX_site2498],8.72 ± 0.49
19,ATTTATATTTATGATACACACACGTATATTCACATA [CACACA_site460],9.32 ± 0.42
20,ATTTGTTTATAGGCCATAAAATATTTAATTCATTTG [CACACA_negctrl_site1824],8.55 ± 0.47
21,AGTATTATATTTGTATGTACGTAGTAATATATAAAA [XGTACX_site528],8.7 ± 0.35
22,TTTTTCATAAATATATGTACATATATTTTATATAAC [XGTACX_site3402],8.69 ± 0.41

row,Sequence,gcPBM binding intensity (ln)
1,AATGTAATATAAATATGTACATAATATATATAATTA [XGTACX_site4762],8.75 ± 0.4
2,ATATATTTATATATATGTACTTAAAACATTTCGATG [XGTACX_site328],8.54 ± 0.32
3,TTTTTATTTTTTTAGTATACGTACTAGGTTTGTTCT [XGTACX_site645],8.92 ± 0.52
4,AACAAGAAAAAAAAAAAAAAAAAAAAAAAATATTTT [XGTACX_negctrl_site428],8.41 ± 0.43
5,ATATATATATTTTTATGAGGCATAAGTAATATTTTT [TGCATGCA_negctrl_site317],8.53 ± 0.4
6,ATATAAAATATTAGTAGTACCATTAACAGTATTGTT [XGTACX_site5912],8.77 ± 0.33
7,ATTAAGATGTATATATGTACATATTACATACATATA [XGTACX_site8657],8.8 ± 0.35
8,AAAAAAAATTAATTAGTGCAAAATATATACAAAATA [GTGCAC_site9762],8.86 ± 0.48
9,TAAGAAAATATTTATGTATGCATGTCCTAATATTTC [TGCATGCA_site295],8.68 ± 0.46
10,AATGAAATATGGATGGGTACACATTTGATTTTATTA [XGTACX_site6155],8.75 ± 0.49
11,TATGAAAAAAAAAATACACACACGAGTTGTTATACA [CACACA_site3188],9.14 ± 0.3
12,ATATATATAAACATATGTACACATATATATAATACA [XGTACX_site1848],9.05 ± 0.36
13,TGTATGTATAGAAACACACATACATATATATAATAT [CACACA_site1405],9.02 ± 0.31
14,TATATATATAATATATGTACATATTAATTATGTATA [XGTACX_site5366],8.56 ± 0.36
15,TGAATAAATATATATACACACATATATGTATATATT [CACACA_site1642],8.95 ± 0.37
16,GAGTTTACACTCCCTTGTACATATTCATTTTTATTC [XGTACX_site5208],9.04 ± 0.46
17,GAATGCCTTGAAAATAGTACAATTAAGAAAAAATAC [XGTACX_site8002],8.77 ± 0.39
18,AATAAAAGATCATTTATTCTTTTTTTTCTTTTTAAA [CACACA_negctrl_site1256],8.12 ± 0.51
19,TAAATAAATTTATACACACACACACCGATATATATA [CACACA_site4622],9.92 ± 0.057
20,AAAATACATAAACGTTCACACATTTAAGATAACGAG [CACACA_site5345],8.96 ± 0.47
21,GAAAATTTTTGGTGTACACAAAAAAATCCAAAAAAA [CACACA_site5042],8.73 ± 0.57
22,TATGATTGTTTACGTTGTACAGCTGAATTGTTCTTA [XGTACX_site8114],8.95 ± 0.36

row,Sequence,gcPBM binding intensity (ln)
1,TTTTATTTTATAAAAATAAAAAAAAAATTATTACAA [TGCATGCA_negctrl_site508],8 ± 0.42
2,AATTAAATAAATGTATGTACATAATAAATATGTATT [XGTACX_site4379],8.84 ± 0.49
3,TGAAAATAGTTAATTTGTACACAAAAATTAAGAAAA [XGTACX_site5794],8.79 ± 0.51
4,AAAGAAATATATACAAAAATATGAACAATTTATTAT [XGTACX_negctrl_site78],8.7 ± 0.42
5,TTTTCGATGTTGGTAGGATGTATGGTACACGTAGTA [TGCATGCA_negctrl_site61],8.71 ± 0.42
6,TATGAAAATATATATTGTACAGAATCTATAAAAAAT [XGTACX_site8030],8.72 ± 0.51
7,TATAATAATATATATTGTACACACAAAATGGGAAAA [XGTACX_site3911],9.02 ± 0.45
8,GAATTTATGAACTGTGCATGTAAAAAAAACAACAAA [TGCATGCA_site449],8.88 ± 0.41
9,TATATGAAGCTATAGACACACATATAAAAATATAAT [CACACA_site4850],9.01 ± 0.49
10,AAAAATTCTTTTTCATCTATATGCAGAAAGAAAAAG [CACACA_negctrl_site1201],8.08 ± 0.4
11,CTAAATAAAGTTAACACACACATAATATATATATGT [CACACA_site486],9.29 ± 0.33
12,TAATTTTTATGAAGAAGTACAAAATCTACTATCATA [XGTACX_site4985],8.24 ± 0.39
13,CATAAACTTTTTAACACACACTTATATATATATATA [CACACA_site4747],9.24 ± 0.13
14,TACATCTGTAATGTGTGTACATATATGTATATATTT [XGTACX_site1805],9.07 ± 0.39
15,AATGAAATAAAATAAAGTACATATATGTAAAAGTAG [XGTACX_site5650],9.79 ± 0.49
16,ATATATATAATATGATGTACATATTTATTTATATAT [XGTACX_site7333],8.76 ± 0.35
17,TTTTTTTTTTTTTACACACACAAAATATTATCTGTA [CACACA_site5378],9.12 ± 0.42
18,AATTGAAAAGAATGAAGTACACATTTGATGATACAT [XGTACX_site5182],8.8 ± 0.44
19,ATATAAAAAAAAGATGAAAAAAAAAATGAAAGAAAG [CACACA_negctrl_site1266],8.72 ± 0.53
20,ACTCTCTTATATTAAACACACATATTTATAGGTATA [CACACA_site7302],8.96 ± 0.43
21,ATTTTAGAATAAATTTTTTACATTAAAAAACTATTT [CACACA_negctrl_site1414],8.21 ± 0.54
22,GTATCAAAAGAATACACACACACATACATATATATA [CACACA_site3796],10 ± 0.28
